Measured values as given in the supplement of paper PMC7125110.
± gives the standard error. Variants at the background level are over-represented here.

B1: glmS ribozyme (parent)
chain: AUAAAAGCGCCAGAACUACAGAAAUGUAGUUGACGAGGAGGAGGUUUAUCGAAUUUUCGGCGGAUGCCUCCAAA

What was measured:
Settings in all cases: with glucosamine-6-phosphate
glucosamine-6-phosphate [1] = variants of: B1; test: self-cleavage kobs at 40 uM GlcN6P; higher = faster cleavage; RNA array
How it was run: (§1)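 Barcoded ribozyme variants were transcribed in situ on sequenced MiSeq chips by E. coli RNA polymerase. At 37 °C, a hybridised Cy3 probe tracked them while glucosamine-6-phosphate (40 μM to 10 mM) in HEPES/KCl/Mg(OAc)2 buffer flowed in and tiles were imaged over ~14 h. Per-tile medians of signals normalised to baseline and to non-cleaving reference variants were fit to one- or two-exponential decays, giving kobs. kcat and KM came from weighted Michaelis–Menten fits across concentrations.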

glucosamine-6-phosphate [2] = variants of: B1; test: self-cleavage kobs at 2500 uM GlcN6P; higher = faster cleavage; RNA array
How it was run: as §1

glucosamine-6-phosphate [3] = variants of: B1; test: self-cleavage kobs at 10000 uM GlcN6P; higher = faster cleavage; RNA array
How it was run: as §1

glucosamine-6-phosphate [4] = variants of: B1; test: self-cleavage kobs at 640 uM GlcN6P; higher = faster cleavage; RNA array
How it was run: as §1

glucosamine-6-phosphate [5] = variants of: B1; test: self-cleavage kobs at 160 uM GlcN6P; higher = faster cleavage; RNA array
How it was run: as §1

| Variant | self-cleavage kobs at 40 uM GlcN6P (glucosamine-6-phosphate [1]) [s⁻¹] | self-cleavage kobs at 2500 uM GlcN6P (glucosamine-6-phosphate [2]) [s⁻¹] | self-cleavage kobs at 10000 uM GlcN6P (glucosamine-6-phosphate [3]) [s⁻¹] | self-cleavage kobs at 640 uM GlcN6P (glucosamine-6-phosphate [4]) [s⁻¹] | self-cleavage kobs at 160 uM GlcN6P (glucosamine-6-phosphate [5]) [s⁻¹] |
| --- | --- | --- | --- | --- | --- |
| AUAAAAGCGCCAGAAAUACAGAAAUGUAGUUGACGAGGAGGAGGUUUAUCGAAUUUUCGACGGAUGCCUCCAAA | < 1e-05 | < 1e-05 | < 1e-05 |  |  |
| AUAAAAGCGCCAGAAAUACAGAAAUGUAGUUGACGAGGAGGAGGUUUAUCGAAUUUUCGUCGGAUGCCUCCAAA | < 1e-05 | < 1e-05 | < 1e-05 | < 1e-05 | < 1e-05 |
| AUAAAAGCGCCAGAAAUACAGAAAUGUAGUUGACGAGGAGGAGGUUUAUCGAAUUUUCGUCGGAUGCUUCCAAA | < 1e-05 | < 1e-05 |  | < 1e-05 | < 1e-05 |
| AUAAAAGCGCCAGAAGUACAGAAAUGUAGUUGACGCGGAGGAGGUUUAUCGAAUUUUCGGCGGAUACCUCCAAA | < 1e-05 |  |  |  |  |
| AUAAAAGCGCCAGAAAUACAGAAAUGUAGUUGACGAGGAGCAGGUUUAUCGAAUUUUCGGCGGAUGCCUCCAAA | < 1e-05 |  |  | < 1e-05 | < 1e-05 |
| AUAAAAGCGCCAGAAAUACAGAAAUGUAGUUGACGAGGAGGAGGUUUAUCGAAUUGUCGUCGGAUGCCUCCAAA | < 1e-05 |  |  | < 1e-05 |  |
| AUAAAAGCGCCAGAAAUACAGAAAUGUAGUUGACUAGGAGGAGGUUUAUCGAAUUUUCGGCGGAUGCCUCCAAA | < 1e-05 | < 1e-05 | < 1e-05 | < 1e-05 | < 1e-05 |
| AUAAAAGCGCCAGAAAUACAGAAAUGUAGUUGACAAGGAGGAGGUUUAUCGAAUUUUCGGCGGAUGCCUCCAAA | < 1e-05 | < 1e-05 | < 1e-05 | < 1e-05 | < 1e-05 |
| AUAAAAGCGCCAGAAAUACAGAAAUGUAGUUGACGAGGAGGAGCUUUAUCGAAUUUUCGGCGGAUGCCUCCAAA | < 1e-05 |  | < 1e-05 | < 1e-05 | < 1e-05 |
| AUAAAAGCGCCAGAAGUACAGAAAUGUAGUUGACGAGGAGGUGGGUUAUCGAAUUUUCGGCGGAUGCCUCCAAA | < 1e-05 |  |  |  |  |
| AUAAAAGCGCCAGAAGUACAGAAAUGUAGUUGACGAGGAGGAGGUUUAUCGAGUUUUCGGCGGAUGACUCCAAA | 2.96e-05 ± 1.3e-05 |  | 0.000212 ± 5.9e-05 |  |  |
| AUAAAAGCGCCAGAAGUACAGAAAUGUAGUUGACGAGGCGGAGGUUUAUAGAAUAUUCGGCGGAUGCCUCCAAA | < 1e-05 |  |  |  |  |
